Results as given in patent US20240043567A1 (published 2024).

Molecular target: QP3732 (Her2M2-Fc)
Assay: ELISA

B1: QP34563457 (bispecific antibody)
chain 1: [skipping about 100 residues]GGGGSGGGGSGGGGS[skipping about 120 residues]
chain 2: [skipping about 120 residues]GGGGSGGGGSGGGGSITCPPPMSVEHADIWVKSYSLYSRERYICNSGFKRKAGTCSLTECVLNKATNVAHWTTPSLKCIRGGGGS[skipping human IgG1 Fc with changes]
light: DIQMTQSPSSLSASVGDRVTITCKASQDVSIGVAWYQQKPGKAPKLLIYSASYRYTGVPSRFSGSGSGTDFTLTISSLQPEDFATYYCQQYYIYPYTFGQGTKVEIKRTVAAPSVFIFPPSDEQLKSGTASVVCLLNNFYPREAKVQWKVDNALQSGNSQESVTEQDSKDSTYSLSSTLTLSKADYEKHKVYACEVTHQGLSSPVTKSFNRGEC
heavy: EVQLVESGGGLVQPGGSLRLSCAASGFTFTDYTMDWVRQAPGKGLEWVADVNPNSGGSIYNQRFKGRFTLSVDRSKNTLYLQMNSLRAEDTAVYYCARNLGPSFYFDYWGQGTLVTVSSASTKGPSVFPLAPSSKSTSGGTAALGCLVKDYFPEPVTVSWNSGALTSGVHTFPAVLQSSGLYSLSSVVTVPSSSLGTQTYICNVNHKPSNTKVDKKV[skipping human IgG1 Fc with T366S L368A Y407V H435R (EU numbers)]
  EC50: 0.122 µg/mL
